Measurements: the RNAGym collection of RNA variant scans (doi:10.1101/gad.245936.114)
Variants at the background level are over-represented here.

B1: tRNA (parent)
chain: CUCUCGGUAGCCAAGUUGGUUUAAGGCGCAAGACUUUAAUUUAUCACUACGAAAUCUUGAGAUCGGGCGUUCGACUCGCCCCCGGGAGAUUUUUUCCUCGAGCAA

Variants of: B1
Assay: nonsense suppression (GFP-seq) (ratio to wild type); higher = more function; SUP4oc tRNA, yeast GFP reporter sort-seq
Outline: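 Yeast carrying genome-integrated SUP4oc tRNA variants from a library with ~3% random mutations were grown in raffinose/galactose medium with 80 mg/L adenine. Each strain also carried a galactose-driven GFP ochre reporter and RFP. Cells were sorted into GFP/RFP bins, and each bin was Illumina-sequenced (phred ≥30). Nonsense suppression (GFPSEQ) is the bin median GFP/RFP, weighted by each variant's estimated cell share per bin, relative to wild-type SUP4oc; variants needed ≥100 reads and ≥30 cells.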

Variant	nonsense suppression
A31C U55C G78C	≤ 0.026
A31C U57G G59C A74C G78U G86A	≤ 0.026
A31C U58A A60U G65U G78C C81G A89G	≤ 0.026
A31C U63C	≤ 0.026
A31C U70C C80U G86U G88U	≤ 0.026
A31C U76C	≤ 0.026
A31G A33G C56U	≤ 0.026
A31G A33G U55C G61A	0.727
A31G A33U G86A	≤ 0.026
A31G A54U G59A G61C G88A	≤ 0.026
A31G A60C C82U	≤ 0.026
A31G A60G U76A C80A	≤ 0.026
A31G A62C G86C	≤ 0.026
A31G A74C	≤ 0.026
A31G A87G	0.762
A31G C34G A54C U57C U63C G65A U70C	≤ 0.026
A31G C34G U76G	≤ 0.026
A31G C56G	≤ 0.026
A31G C75A	1.06
A31G C79U	0.77
A31G C81A	≤ 0.026
A31G C82A	≤ 0.026
A31G C82U	0.25
A31G C83A	0.0481

Variant	nonsense suppression
A31G G32C U57C	≤ 0.026
A31G G61A A62U U76A	≤ 0.026
A31G G65A C75A C83U	≤ 0.026
A31G G66C C79A	≤ 0.026
A31G G66U C81G	≤ 0.026
A31G G67C	≤ 0.026
A31G G67U A74G U76G C81A	≤ 0.026
A31G G85C	≤ 0.026
A31G U35A	0.0292
A31G U55A G65A	≤ 0.026
A31G U55C	≤ 0.026
A31G U58A C68G	≤ 0.026
A31G U58C G59A	≤ 0.026
A31G U58G	≤ 0.026
A31G U63C C64U	≤ 0.026
A31G U63C G88C	≤ 0.026
A31G U63G	0.0741
A31G U70A C77G	≤ 0.026
A31G U70C	0.0279
A31G U70G	≤ 0.026
A31G U71A G73A C77U	≤ 0.026
A31G U71G C83U	≤ 0.026
A31U A33C U55A G86A	≤ 0.026
A31U A33G G59A U76A	≤ 0.026

Variant	nonsense suppression
A31U A54G	≤ 0.026
A31U A60C	0.0348
A31U A60C G66C U70A G85A	≤ 0.026
A31U A60U	0.647
A31U A62C U63C	≤ 0.026
A31U A62G	≤ 0.026
A31U A62G U70C	≤ 0.026
A31U A87C	≤ 0.026
A31U A87G	≤ 0.026
A31U C34G	≤ 0.026
A31U C56G C72U	≤ 0.026
A31U C56U U70C G88U	≤ 0.026
A31U C68A G86A	≤ 0.026
A31U C81G	≤ 0.026
A31U G32C	≤ 0.026
A31U G59A A60G	≤ 0.026
A31U G59A C80U	≤ 0.026
A31U G59U C75G	≤ 0.026
A31U G61A	≤ 0.026
A31U G61C C77A	≤ 0.026
A31U G61U	0.0345
A31U G61U C64G	≤ 0.026
A31U G66C A87C	≤ 0.026
A31U G67A G78C	≤ 0.026

Variant	nonsense suppression
A31U G67A U70G	≤ 0.026
A31U G67C U70A C81A	≤ 0.026
A31U G73C C81G	≤ 0.026
A31U G78A	≤ 0.026
A31U G78C G88U	≤ 0.026
A31U G78U C80A G88U	≤ 0.026
A31U G85A	0.164
A31U U35A	≤ 0.026
A31U U35C	≤ 0.026
A31U U35G U71G A89G	≤ 0.026
A31U U55A G67A A74G	≤ 0.026
A31U U55C	0.0547
A31U U55C G59C U63G A89G	≤ 0.026
A31U U57A	0.963
A31U U58A C80A	≤ 0.026
A31U U58C A60C G69A U71A	≤ 0.026
A31U U58C G59U A89U	≤ 0.026
A31U U63C	≤ 0.026
A31U U63G G86A	≤ 0.026
A31U U70C	≤ 0.026
A31U U70G	≤ 0.026
A31U U71C C72G	≤ 0.026
A31U U76A	0.0413
G32A A33G	≤ 0.026

Variant	nonsense suppression
G32A A33G U63A	≤ 0.026
G32A A33G U71A C82G	≤ 0.026
G32A A54U C81A	≤ 0.026
G32A A54U G66A	≤ 0.026
G32A A60C G65A U70A	≤ 0.026
G32A A60C G65U	≤ 0.026
G32A A60C U70G C83U	≤ 0.026
G32A A62C	≤ 0.026
G32A C34U A60C G84A A87U	≤ 0.026
G32A C56A A60G C72A	≤ 0.026
G32A C72U C82G A89G	≤ 0.026
G32A C75A	≤ 0.026
G32A C79A G88A	≤ 0.026
G32A C79G C82G	≤ 0.026
G32A C83G	≤ 0.026
G32A G59U U70A	≤ 0.026
G32A G61A A74U G78A	≤ 0.026
G32A G65C	≤ 0.026
G32A G66U	≤ 0.026
G32A G73U	≤ 0.026
G32A G85C	≤ 0.026
G32A G88C	≤ 0.026
G32A G88U	≤ 0.026
G32A U35A	≤ 0.026

Variant	nonsense suppression
G32A U55A C68U	≤ 0.026
G32A U57A C64U	≤ 0.026
G32A U57G	≤ 0.026
G32A U57G G61C	≤ 0.026
G32A U57G U70C	≤ 0.026
G32A U70A	≤ 0.026
G32A U76G	≤ 0.026
G32C A33G G69C	≤ 0.026
G32C A33U G84C	≤ 0.026
G32C A62U	≤ 0.026
G32C C34A U35C A60G	≤ 0.026
G32C C34G C72A	≤ 0.026
G32C C56A	≤ 0.026
G32C C72G	≤ 0.026
G32C C79A	≤ 0.026
G32C C79U	≤ 0.026
G32C C80G	≤ 0.026
G32C G59C	≤ 0.026
G32C G59U U71C	≤ 0.026
G32C G61U	≤ 0.026
G32C G65U G66U C80U	≤ 0.026
G32C G66U	≤ 0.026
G32C G67A	≤ 0.026
G32C G67A C72U	≤ 0.026

Variant	nonsense suppression
G32C G67U	≤ 0.026
G32C G69A C80G A87U	≤ 0.026
G32C G84C	≤ 0.026
G32C U35A	≤ 0.026
G32C U35A A54C C75U A87U	≤ 0.026
G32C U55A G66U	≤ 0.026
G32C U57G	≤ 0.026
G32C U63C	≤ 0.026
G32C U70C	≤ 0.026
G32U A33G C56U G88C	≤ 0.026
G32U A33G C68A C82A	≤ 0.026
G32U A33U	≤ 0.026
G32U A33U A54C U57G G66A	≤ 0.026
G32U A33U G61A G69A	≤ 0.026
G32U A54C G65U U71C	≤ 0.026
G32U A60C	≤ 0.026
G32U A60U C81A	≤ 0.026
G32U A62G	≤ 0.026
G32U A74C A87C	≤ 0.026
G32U A74G C81A A89U	≤ 0.026
G32U A89U	≤ 0.026
G32U C34A C56A	≤ 0.026
G32U C34U C81A	≤ 0.026
